According to the RNAGym collection of RNA variant scans (doi:10.1093/nar/gkz1192):
The source gives no read counts; variants with many changes may rest on few reads.

B1: CPEB3 Ribozyme (parent)
chain: UAACAGGGGGCCACAGCAGAAGCGUUCACGUCGCAGCCCCUGUCAGAUUCUGGUGAAUCUGCGAAUUCUGCUGUAUAUCUC

Variants of: B1
Assay: self-cleavage, relative activity (ratio to wild type); higher = more cleavage; in vitro, sequencing
Procedure, shortened: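 Relative activity compares each variant's cleaved/total read fraction with that of the unmutated ribozyme. To get these fractions, barcoded CPEB3 ribozyme libraries from rounds of error-prone PCR were transcribed with T7 RNA polymerase for 5 hours at 37°C and then given 15 min of DNase I treatment before EDTA was added. The RNAs were reverse transcribed with template switching and sequenced on Illumina, and DNA sequencing linked barcodes to variants. A minimum of 5 reads applied, and three batches were averaged.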

Row | Variant | self-cleavage
1 | UAACAGGGGGCCACAGCAGGAGCGUUCACGUCGCAGCCCCUGGCAGAUUCUGGUGGAACUGCGAAUUCUGCAGUAUAUCUC [A20G U43G A56G U58A U72A] | 0.36
2 | UAACAGGGGGCCACAGCAGGAGCGUUCACGUCGCAGCCCCUGGCAGACUCUGGUGAAUCUGCGAAUUCUGCUGUAUAUCUC [A20G U43G U48C] | 0.15
3 | UAACAGGGGGCCACAGCAGGAGCGUUCACGUCGCAGCCCCUGGCAGAUUCUGGUGAAUCUGCGAAUUCUGCUGUAUAUCCC [A20G U43G U80C] | 0.43
4 | UAACAGGGGGCCACAGCAGGAGCGUUCACGUCGCAGCCCCUGUCAGAAUCUGGUGAAUCCGCGAAUUCUGCUGUAUAUCUC [A20G U48A U60C] | 0.16
5 | UAACAGGGGGCCACAGCAGGAGCGUUCACGUCGCAGCCCCUGUCAGAAUCUGGUGAAUCUGCGAAUUCUGCCGUAUAUCUC [A20G U48A U72C] | 0.37
6 | UAACAGGGGGCCACAGCAGGAGCGUUCACGUCGCAGCCCCUGUCAGACUCUCGUGAAUCUGCGAAUUCUGCUGUAUAUCUC [A20G U48C G52C] | 0.37
7 | UAACAGGGGGCCACAGCAGGAGCGUUCACGUCGCAGCCCCUGUCAGACUCUGGUGAAUCUACGAAUUCUGCUGUAUAUCUC [A20G U48C G61A] | 0.12
8 | UAACAGGGGGCCACAGCAGGAGCGUUCACGUCGCAGCCCCUGUCAGACCCUGGUGAAUCUGCGAAUUCUGCUGUACAUCUC [A20G U48C U49C U76C] | 0.26
9 | UAACAGGGGGCCACAGCAGGAGCGUUCACGUCGCAGCCCCUGUCAGACUCCGGUGAAUCUGCGAGUUCUGCUGUAUAUCUC [A20G U48C U51C A65G] | 0.24
10 | UAACAGGGGGCCACAGCAGGAGCGUUCACGUCGCAGCCCCUGUCAGACUCUGGUGAAUCUGCGAAUUCUGCAGUAUAUCUC [A20G U48C U72A] | 0.27
11 | UAACAGGGGGCCACAGCAGGAGCGUUCACGUCGCAGCCCCUGUCAGACUCUGGUGAAUCUGCGAAUUCUGCUGUAUAUCAC [A20G U48C U80A] | 0.41
12 | UAACAGGGGGCCACAGCAGGAGCGUUCACGUCGCAGCCCCUGUCAGAGUCUGGUGCAUCUGCGAAUGCUGCUGUAUAUCUC [A20G U48G A56C U67G] | 0.09
13 | UAACAGGGGGCCACAGCAGGAGCGUUCACGUCGCAGCCCCUGUCAGAGUCUGGUAACUCUGCGAAUCCUGCUGUAUAUCUC [A20G U48G G55A A57C U67C] | 1.05
14 | UAACAGGGGGCCACAGCAGGAGCGUUCACGUCGCAGCCCCUGUCAGAUACUGGUGGCUCUGCGAAUUCUGCAGUAUAUCUC [A20G U49A A56G A57C U72A] | 0.13
15 | UAACAGGGGGCCACAGCAGGAGCGUUCACGUCGCAGCCCCUGUCAGAUACUGGUGGAUCUGCGGAUUCUGCUGUUUAUCUC [A20G U49A A56G A64G A75U] | 0.25
16 | UAACAGGGGGCCACAGCAGGAGCGUUCACGUCGCAGCCCCUGUCAGAUAAAGGUGAAUAUGCGAAUUCUGCUGUAUAUCUC [A20G U49A C50A U51A C59A] | 0.1
17 | UAACAGGGGGCCACAGCAGGAGCGUUCACGUCGCAGCCCCUGUCAGAUACUGGAGAAUCUGCGAAUUUUGCUGUAUAUCUC [A20G U49A U54A C68U] | 0.47

Row | Variant | self-cleavage
18 | UAACAGGGGGCCACAGCAGGAGCGUUCACGUCGCAGCCCCUGUCAGAUACUGGCGAAUCUGCGAAUUUUGCUGUAUAUCUC [A20G U49A U54C C68U] | 0.09
19 | UAACAGGGGGCCACAGCAGGAGCGUUCACGUCGCAGCCCCUGUCAGAUCCUGGUGGAUCCGCGAAUUCUGCUGUAUAUCUC [A20G U49C A56G U60C] | 0.55
20 | UAACAGGGGGCCACAGCAGGAGCGUUCACGUCGCAGCCCCUGUCAGAUCCUGGUGGAUCCGCGAAUUCUGCUGUUUAUCUC [A20G U49C A56G U60C A75U] | 0.23
21 | UAACAGGGGGCCACAGCAGGAGCGUUCACGUCGCAGCCCCUGUCAGAUCCUGGUGUAUCUGCGAAUUCUGCUGUAUAUCUC [A20G U49C A56U] | 0.19
22 | UAACAGGGGGCCACAGCAGGAGCGUUCACGUCGCAGCCCCUGUCAGAUCCUGGUGAGUCUGCGAAUUCUGCUGUAUAUCUC [A20G U49C A57G] | 0.2
23 | UAACAGGGGGCCACAGCAGGAGCGUUCACGUCGCAGCCCCUGUCAGAUCCUGGUGAAUCUGCGGAUUCAGCUGUAUAUCUC [A20G U49C A64G U69A] | 0.18
24 | UAACAGGGGGCCACAGCAGGAGCGUUCACGUCGCAGCCCCUGUCAGAUCCUGGUGAAUCUGCGUAUCCUGCUGUAUAUAUC [A20G U49C A64U U67C C79A] | 0.07
25 | UAACAGGGGGCCACAGCAGGAGCGUUCACGUCGCAGCCCCUGUCAGAUCCCGGUGAAUCUGCGAAUUCUGCUGGAUAUCUC [A20G U49C U51C U74G] | 0.2
26 | UAACAGGGGGCCACAGCAGGAGCGUUCACGUCGCAGCCCCUGUCAGAUCCUGGUGAAUCUGCGAAAUCUGCUGUAUAUCUC [A20G U49C U66A] | 0.19
27 | UAACAGGGGGCCACAGCAGGAGCGUUCACGUCGCAGCCCCUGUCAGAUCCUGGUGAAUCUGCGAAUUCUGCUGUAAAUCUC [A20G U49C U76A] | 0.32
28 | UAACAGGGGGCCACAGCAGGAGCGUUCACGUCGCAGCCCCUGUCAGAUCCUGGUGAAUCUGCGAAUUCUGCUGUAUAUCCC [A20G U49C U80C] | 0.37
29 | UAACAGGGGGCCACAGCAGGAGCGUUCACGUCGCAGCCCCUGUCAGAUGCUGGCGAAUCUGCGUAUUCUGCCGUAUAUCUC [A20G U49G U54C A64U U72C] | 0.07
30 | UAACAGGGGGCCACAGCAGGAGCGUUCACGUCGCAGCCCCUGUCAGAUUCAGGUGAGUCAGCGAAUUCUGCUGUAUAUCUC [A20G U51A A57G U60A] | 0.34
31 | UAACAGGGGGCCACAGCAGGAGCGUUCACGUCGCAGCCCCUGUCAGAUUCAGGUGAAUCUGCGGAUUCUGCUGUAUAUCUC [A20G U51A A64G] | 0.63
32 | UAACAGGGGGCCACAGCAGGAGCGUUCACGUCGCAGCCCCUGUCAGAUUCAGGUGAAUCUGCCAAUUCUGCUGUAUAUCUC [A20G U51A G63C] | 0.82
33 | UAACAGGGGGCCACAGCAGGAGCGUUCACGUCGCAGCCCCUGUCAGAUUCAGGUGAAUCUGCGAACUCUGCUGUAUAUCUC [A20G U51A U66C] | 0.17
34 | UAACAGGGGGCCACAGCAGGAGCGUUCACGUCGCAGCCCCUGUCAGAUUCAGGUGAAUCUGCGAAUUCAGCUGUAUAUCUC [A20G U51A U69A] | 0.43
